Assay results published in PubChem BioAssay AID1345083 (National Center for Advancing Translational Sciences (NCATS), 2018).
The whole screen tested about 94,000 compounds, of which about 6,200 (6.6%) were called active. The inconclusive results got no clear call from the source; some entries with a clear call stand among them for comparison. The call rests on the fitted dose curve; in most records, active means well fitted inhibition curve with a large enough effect; inconclusive means small, poorly fitted or top-dose-only effect; inactive means flat fitted curve, though single readings scatter. Where the call is inconclusive, the potency comes from a doubtful curve fit.

test: Cytotoxic Profiling in HEK 293 Cell Line of Diverse Libraries Using Quantitative High-Throughput Screening; details: HEK 293 viability, ATP luminescence (CellTiter-Glo), 48-72 h; series mostly up to 115 µM; further: nearly all actives have a fitted effect of over 60% in size
Outline: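 Cytotoxicity was scored by loss of ATP-coupled luminescence (CellTiter-Glo) in HEK 293 cells. Compound treatment ran 48 or 72 hr at 37 degree Celsius, 5% CO2, 95% humidity.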
Potency means the concentration at half of the fitted maximal effect; tags describe the fitted curve by direction and shape.

Row | Structure (SMILES) | Potency
1 | COc1ccc(OCC(=O)N2CCN(c3cc(-c4ccccc4)[nH]n3)CC2)cc1 | inconclusive: 89.1 µM [inhibitor, single point]
2 | O=C(c1cccnc1)N1CCN(c2cc(-c3cccs3)[nH]n2)CC1 | inconclusive: 89.1 µM [inhibitor, single point]
3 | Cc1ccc(C(=O)N2CCC(C(=O)N3CCC(N4CCOCC4=O)CC3)CC2)cc1 | inactive
4 | O=C(c1c[nH]c2ccccc12)N1CCC2(CC1)CN(c1ccncn1)CC2CO (stereo unspecified) | inactive
5 | CC1(c2ccccc2)N(Cc2ccccc2)C(=O)OC12CCN(C(=O)c1cccc(O)c1)CC2 (stereo unspecified) | active: 79.4 µM
6 | O=C(Nc1cccc(C(F)(F)F)c1)O[C@@H]1CO[C@H]2[C@@H]1OC[C@@H]2NS(=O)(=O)c1cccc2cccnc12 | inconclusive: 89.1 µM [inhibitor, partial curve, poor fit]
7 | C#CCNC(=O)c1cc(-c2cccc(C(F)(F)F)c2)nc2c1cnn2C | inconclusive: 17.8 µM [inhibitor, full curve, poor fit]
8 | Cc1ccc(NC(=O)Cn2cccc2-c2nc(-c3ccc4c(c3)OCO4)no2)cc1 | inconclusive: 56.2 µM [inhibitor, partial curve, poor fit]
9 | CCc1nc2c(c(-c3ccc(Cl)cc3)n1)CN(C(=O)Cc1cccc(Cl)c1)CC2 | inconclusive: 56.2 µM [inhibitor, partial curve, poor fit]
10 | COc1cccc(C(=O)N2C[C@@H](C(N)=O)[C@@H]3Oc4c(C)cccc4[C@@H]32)c1 | inconclusive: 50.1 µM [inhibitor, partial curve, poor fit]
11 | Cc1nc(N2CCC(NC(=O)c3ccccn3)CC2)cc(C(F)(F)F)n1 | inconclusive: 35.5 µM [inhibitor, full curve]
12 | O=C1NCCCCCN(C(=O)CCC2CCCC2)[C@H]2CCCC[C@@H]12 | inactive
13 | CS(=O)(=O)N(C1CCOCC1)C1CCN(S(=O)(=O)Cc2ccccc2)CC1 | inactive
14 | Fc1ccc(CNc2cc3c(cn2)NCCN(Cc2ccccc2)C3)cc1 | inconclusive: 89.1 µM [inhibitor, partial curve, poor fit]
15 | O=C(NCc1ccc(Cl)cc1)[C@@H]1Cc2nc[nH]c2CN1Cc1ccc(CO)o1 | inactive
16 | Cn1cc(-c2cnc(Nc3cccc(C(F)(F)F)c3)c3c2CCO3)cn1 | inconclusive: 63.1 µM [inhibitor, partial curve, poor fit]
17 | O=C(NCCc1ccccc1F)c1nc2sccn2c1-c1ccccc1 | inconclusive: 50.1 µM [inhibitor, partial curve, poor fit]
18 | CC[C@H]1CN(C(=O)c2ccnc(Cl)c2)CC[C@H]1CC(=O)N(C)CC#N | inconclusive: 126 µM [inhibitor, single point]
19 | O=C(CNC(=O)c1ccc(-c2cccc(C(F)(F)F)c2)cc1)NC1CCCC1 | inconclusive: 3.55 µM [inhibitor, full curve]
20 | O=C(NC1CCCCCCC1)C1CCCN(C2CCN(Cc3ccncc3)CC2)C1 (stereo unspecified) | inconclusive: 70.8 µM [inhibitor, partial curve, poor fit]
21 | CC(C)C[C@@H]1N[C@H](C(=O)NC(C)C)Cc2c[nH]c3cccc1c23 | inconclusive: 63.1 µM [inhibitor, full curve, poor fit]
22 | O=C1OC[C@@H]2CCN(C3CCC3)Cc3ccc(F)cc3N12 | inactive

Row | Structure (SMILES) | Potency
23 | Cc1nn2c(c1-c1ccccc1Oc1ccccc1)N(Cc1ccc(OCC(=O)O)cc1)CCC2 | inactive
24 | Cc1ccc(CNC(=O)N(C)C2CCc3nn(CC4CC4)c(=O)n3CC2)cc1 (stereo unspecified) | inconclusive: 79.4 µM [inhibitor, single point]
25 | CCOC(=O)c1ccc(NC(=O)CN2C(=O)NC3(CCCCC3)C2=O)cc1 | inconclusive: 35.5 µM [inhibitor, partial curve, poor fit]
26 | Cn1cc(Cl)cc1C(=O)N1CCCC(c2ccc(C(=O)O)cc2)C1 (stereo unspecified) | inactive
27 | COc1ccccc1-c1ccc(C(=O)N2CCC(C(=O)NCCCc3ccccc3)CC2)cc1 | active: 79.4 µM
28 | CNc1ccc(C(=O)N2CCC(CCn3cccn3)CC2)cn1 | inactive
29 | OC1CC(c2cc(N3CCC(c4nnc5ccccn45)CC3)ncn2)C1 (stereo unspecified) | inactive
30 | COCCNC(=O)CC[C@]12CC[C@](C)(O)C[C@H]1C(C)(C)C[C@@H]2NC(=O)c1ccco1 | inactive
31 | COCC(=O)N1C[C@@H](COC)[C@H](c2ccncc2)C1 | inactive
32 | O=S(=O)(c1ccc(F)cc1)N1CCCC(Cc2noc(-c3ccncc3)n2)C1 (stereo unspecified) | inconclusive: 50.1 µM [inhibitor, partial curve, poor fit]
33 | O=C1Nc2ccc(-c3ccc4c(c3)OCO4)cc2C(=O)N2CCN(C(=O)c3cccs3)C[C@@H]12 | active: 31.6 µM
34 | CC(C)(C)C(=O)N1CCN(c2nccc(Nc3ccccc3F)n2)CC1 | inconclusive: 56.2 µM [inhibitor, partial curve, poor fit]
35 | COc1cc(Cl)ccc1C(=O)N1CCC2(CC1)NC(=O)N(c1ccc(F)cc1)N2 | active: 12.6 µM
36 | COc1ncccc1-c1cccc(CCOc2cnc3c(ccn3CC(=O)O)c2)c1 | inconclusive: 126 µM [inhibitor, single point]
37 | CC(C)c1noc(C2CCCN(Cc3cc(=O)c4cccc(F)c4[nH]3)C2)n1 (stereo unspecified) | inconclusive: 56.2 µM [inhibitor, partial curve, poor fit]
38 | O=C(Nc1cnc(-c2ccc(F)cc2)nc1)c1ccco1 | inconclusive: 89.1 µM [inhibitor, single point]
39 | O=C(Cn1ccn2nc(-c3ccc(F)cc3)c(CO)c2c1=O)Nc1ccc(F)c(Cl)c1 | inconclusive: 56.2 µM [inhibitor, partial curve, poor fit]
40 | Cc1cccc(CN2CCNc3cc(-c4ccnc(C)c4)ncc3C2)c1 | active: 39.8 µM
41 | Cc1cc(CNC(=O)c2cccc(F)c2F)c2[nH]c(C)c(C)c2c1 | active: 35.5 µM
42 | COc1ccc(-c2noc(CC3CCN(C(=O)Cc4ccccc4OC)CC3)n2)cc1 | inconclusive: 10 µM [inhibitor, full curve, poor fit]
43 | Cc1nc(C)c(C(=O)N2CCC3(CC2)CC(N(C2CC2)S(C)(=O)=O)CCO3)s1 (stereo unspecified) | inactive
44 | O=C(NCc1ccc2c(c1)OCO2)c1cc(-c2cc(Cl)cc(Cl)c2)c2cccn2n1 | inconclusive: 89.1 µM [inhibitor, single point]

Row | Structure (SMILES) | Potency
45 | COc1cccc(CN2C[C@@H]3C(=O)N(Cc4ccc5c(c4)OCO5)C(=O)[C@@H]3C2)c1OC | inconclusive: 79.4 µM [inhibitor, partial curve, poor fit]
46 | O=C(Cc1ccc(F)cc1)N1CCC[C@H]1c1nc(-c2ccccc2Cl)no1 | inconclusive: 50.1 µM [inhibitor, partial curve, poor fit]
47 | CNC(=O)c1cc(C)nc2onc(C3CCCN3C(=O)c3ccncc3)c12 (stereo unspecified) | inactive
48 | O=C(NCCc1ccccc1)c1ccc2c(c1)OCCN(c1ccccc1)C2 | inconclusive: 22.4 µM [inhibitor, full curve, poor fit]
49 | CC(=O)N(C1CC1)C1CCOC2(CCN(C(=O)c3ccsc3)CC2)C1 (stereo unspecified) | inactive
50 | COc1ccc2c(c1)CN(CC1CC1)C(=O)CCN2C(=O)C1CCC1 | inactive
51 | Cn1ncc2c(C(=O)NCCN3CCOCC3)cc(-c3ccccc3C(F)(F)F)nc21 | inactive
52 | COc1ccc(C(=O)N2CCCN(c3ccc4nnc(C5CC5)n4n3)CC2)cc1 | inactive
53 | Cn1nc(C(=O)NC2CCN(c3cc(-c4cccs4)[nH]n3)C2)c2ccccc21 (stereo unspecified) | inconclusive: 89.1 µM [inhibitor, single point]
54 | O=C1CC(c2ccccc2)N(C(=O)C2CC2)CCCN(S(=O)(=O)c2cccs2)CCN1 (stereo unspecified) | inactive
55 | O=C1Nc2ccccc2CC12CCN(Cc1ccc(C(F)(F)F)cc1)CC2 | inconclusive: 14.1 µM [inhibitor, full curve, poor fit]
56 | CN(C)c1cccc(C(=O)N2CCC(n3cc(-c4nc(C5CC5)no4)nn3)C2)c1 (stereo unspecified) | inconclusive: 44.7 µM [inhibitor, partial curve]
57 | CCCCOC(=O)N1CCC2(CC1)[C@@H](C(=O)OCC)[C@@H](O)C(=O)N2Cc1ccccc1 | inconclusive: 89.1 µM [inhibitor, single point]
58 | CN(C)C(=O)c1nc(-c2ccc(Cl)cc2)c2ccccn12 | active: 100 µM
59 | CSCC(=O)N1CC[C@H](NC(=O)NC(C)C)[C@H]1C(=O)N(C)CC(N)=O | inactive
60 | Cc1nc(CC(=O)N2C[C@@H](CN3CCCCCC3)[C@@H](CO)C2)cs1 | inactive
61 | O=C(c1cc2c(s1)CCC(C(=O)N1CCN(C3CCCC3)CC1)C2)N1CCCCCC1 (stereo unspecified) | inconclusive: 35.5 µM [inhibitor, partial curve, poor fit]
62 | O=C(NCc1cccnc1)C1CN(S(=O)(=O)C2CC2)CC12CCCCC2 (stereo unspecified) | inactive
63 | O=C1NC(=NC2CCCC2)C2(CCN(Cc3ccsc3)C2)N1c1cc(F)cc(F)c1 (stereo unspecified) | inconclusive: 50.1 µM [inhibitor, partial curve, poor fit]
64 | CC(C)(C)CC(=O)N1CCC2(CC1)C(=O)N(CC(=O)Nc1ccc(F)cc1)CN2c1ccccc1 | inconclusive: 50.1 µM [inhibitor, partial curve, poor fit]
65 | COc1cccc(CC(=O)Nc2ccc3c(c2)CN(Cc2ccccc2OC)C(=O)C(C)O3)c1 (stereo unspecified) | inconclusive: 28.2 µM [inhibitor, full curve]
66 | CNC(=O)N1CCC(C2CCN(C(=O)c3ocnc3C)C2)CC1 (stereo unspecified) | inactive
